# Results: PubChem BioAssay (NCATS)
# Inconclusive results are not listed. Calls come from the whole dose curve; as a rule, active = well fitted inhibition curve with a large enough effect; inconclusive = small, poorly fitted or top-dose-only effect; inactive = no such curve, though single readings can be large or run the other way. Some entries of the source have several records that differ or are many. The other results are left out here. The source may hold further records. The values listed for one entry are repeats across runs, samples, wells, individuals or studies.
# Test: Confirmatory screen NINDS Rhodamine qHTS for Zika virus inhibitors (AID 1347161); note: nearly all actives have a fitted effect of over 60% in size
# Conditions: purified enzyme assay, Rhodamine110 substrate fluorescence, 15 min
# Method in brief: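 Aprotinin served as in-plate control. Conditions: 25 nM linked NS2B-NS3, pH 8.0 Tris buffer, titrated compounds, 15 min preincubation and 15 min reaction with 1.5 microM Rhod110 substrate at room temperature.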
# Potency is the fitted concentration of half-maximal effect.
structure (smiles),measurement,value
C=C1c2cccc(O)c2C(O)=C2C(=O)[C@]3(O)C(O)=C(C(N)=O)C(=O)[C@@H](N(C)C)[C@@H]3[C@@H](O)[C@H]12,Potency,"active: 1.56, 55.5, 49.4, 62.2 µM [separate samples]"
